# The supplement of paper PMC7335073
# In all, about 4,100 sequences were measured (“relative CpG methylation activity (normalised to average over all NNNCGNNN flanks)”: median about 0.87, highest 2% from about 2.4 on). Some of the results follow.
# Target: DNMT3A catalytic domain (mouse) (UniProt O88508)
# Experiment: relative CpG methylation activity (normalised to average over all NNNCGNNN flanks) (relative (1 = mean)); higher = more methylation of the central CpG
# Details: system: in vitro, murine catalytic domain; CpG state: hemimethylated substrate pool; residues: 608-908
# Protocol: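 Deep enzymology: a pool of dsDNA substrates with a central CpG flanked by 10 random nucleotides on each side was methylated by the murine DNMT3A or DNMT3B catalytic domain (0.8 mM SAM, 37 °C, 60 min). Methylation was then read out by hairpin ligation, bisulfite conversion and NGS. Values are the average methylation of each NNNCGNNN context (±3 flanks; the outer flanks are random and averaged over), normalised to the overall mean, so 1 = average activity.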
row,Sequence,relative CpG methylation activity
1,CCCCGTAT,0.744
2,GGTCGTGA,0.352
3,CTACGACT,1.86
4,GTCCGCTG,1.42
5,ATTCGATG,0.385
6,CTCCGGTT,1.61
7,CCGCGGCG,0.896
8,GTACGTAG,1.18
9,CAGCGCAG,0.267
10,GAACGGTA,0.646
11,GCGCGGGG,0.217
12,GATCGATG,0.0725
13,AAACGTCC,1.19
14,TACCGCAG,0.256
15,AGTCGCAT,0.486
16,CACCGCGT,0.896
17,AGCCGTAT,0.461
18,GACCGGCC,1.23
19,CCGCGCAC,1.17
20,GAACGTTA,0.565
21,CCGCGTAG,0.667
22,TAACGCAA,0.653
23,AAACGCAA,0.621
24,ATACGGCC,2.06
25,GGTCGATA,0.458

row,Sequence,relative CpG methylation activity
1,AGCCGATT,0.672
2,GAGCGCCG,0.865
3,TGACGCTC,1.26
4,GTTCGCGT,1.13
5,GATCGCAA,0.458
6,ATGCGTCT,1.97
7,TGGCGTCG,0.758
8,CAACGGCA,1.03
9,GTTCGGCT,1.62
10,GAACGTCC,1.06
11,GATCGCGG,0.192
12,GAACGGAT,0.564
13,CTACGCAA,2.07
14,CTCCGGAC,1.43
15,CGACGGAA,0.813
16,GATCGGCG,0.337
17,TCCCGGGA,0.917
18,CCTCGGCA,0.985
19,TCTCGATA,0.597
20,TAACGAAC,1.14
21,ACACGCTC,2.4
22,AGCCGCAG,0.256
23,GACCGTCG,1.29
24,CTGCGGCG,0.556
25,TCACGGTC,1.6

row,Sequence,relative CpG methylation activity
1,AGGCGTCA,1.07
2,AATCGTCT,0.672
3,GGCCGACC,1.01
4,CCTCGTCA,1.72
5,ACCCGTCG,1.85
6,CAGCGACA,0.56
7,TCCCGATA,1.35
8,GATCGACG,0.376
9,CCACGCTA,1.53
10,TACCGCTG,0.952
11,AACCGGCG,0.692
12,TCTCGCTA,1.4
13,AGTCGTTG,0.441
14,ATACGCGC,1.93
15,TATCGGAT,0.25
16,CTTCGTTG,0.714
17,CGGCGCGT,0.446
18,AGTCGAGG,0.159
19,GAACGAAC,0.841
20,ATCCGGGT,1.44
21,ATACGCGT,1.9
22,GTTCGATC,1.21
23,CACCGTCG,1.24
24,GGACGGAT,0.391
25,TCCCGCCC,1.99

row,Sequence,relative CpG methylation activity
1,TATCGCGA,0.514
2,TTCCGATC,2.29
3,AGCCGTGG,0.321
4,GATCGCAT,0.449
5,GCGCGGAT,0.34
6,TACCGACT,0.963
7,TAGCGGAA,0.375
8,ACTCGGCA,0.904
9,GCTCGTAA,0.912
10,CGCCGCCA,1.25
11,ACCCGAGA,1.13
12,AGGCGATA,0.629
13,AAACGCTA,0.746
14,TCACGGAA,1.39
15,AGCCGCCA,1.02
16,TCACGTGC,1.07
17,AACCGTCT,1.51
18,CTGCGTAG,1.27
19,CTGCGTAT,0.851
20,TGACGAAA,0.589
21,GATCGCGA,0.335
22,TAACGCGA,0.673
23,TGCCGTAC,0.828
24,AAGCGACG,0.311
25,TGACGGGC,0.952

row,Sequence,relative CpG methylation activity
1,TATCGAGC,0.705
2,ATACGCCG,2.33
3,CCCCGTGA,0.598
4,CAACGCGC,1.04
5,ATCCGTCG,2.08
6,GCGCGACT,0.797
7,CAGCGATC,0.819
8,GTCCGGAA,1.51
9,CATCGTGG,0.291
10,TATCGCTA,0.839
11,TCTCGTGC,0.46
12,AAGCGAGA,0.525
13,GGACGACT,0.878
14,GGGCGGAC,0.769
15,CCCCGGTT,0.766
16,CTCCGGGA,0.798
17,TAACGCCG,1.14
18,CACCGTAG,0.625
19,ATACGCTC,2.73
20,TGGCGTCA,1.12
21,ATGCGTCA,1.82
22,TATCGCTC,1.78
23,GTCCGAAC,1.91
24,GTCCGTAC,1.42
25,TGTCGAGC,0.459

row,Sequence,relative CpG methylation activity
1,CTGCGAGA,1.06
2,GTCCGTCT,2.14
3,TTGCGACC,1.46
4,AAGCGGGT,0.567
5,GCACGACC,1.36
6,AGCCGGAC,0.673
7,CCACGCCT,2.24
8,AGACGGCC,1.49
9,CTCCGACT,1.55
10,GGTCGTGC,0.26
11,CTCCGAGG,1.01
12,AACCGATA,0.968
13,TCCCGCGC,0.962
14,ACACGGAA,1.11
15,ACCCGTGG,0.188
16,AGCCGGCT,0.977
17,GGCCGGAG,0.135
18,GACCGCGT,0.574
19,ATCCGTCA,1.95
20,GGGCGTTC,0.545
21,GAACGACA,0.886
22,CCCCGACG,1.16
23,CGACGGCA,0.474
24,TTACGGCT,1.84
25,ACGCGACC,1.24

row,Sequence,relative CpG methylation activity
1,CGTCGAGC,1.06
2,AACCGAGT,0.815
3,ACACGTCG,2.02
4,GCTCGGTG,0.431
5,GACCGAAC,1.61
6,CGACGCGT,0.316
7,AGCCGGGT,0.732
8,GACCGACT,1.21
9,ACGCGTGT,0.221
10,ATTCGCAA,1.09
11,ATACGAAT,1.62
12,TCGCGGCT,0.852
13,GCTCGGAG,0.116
14,TTCCGGCA,1.67
15,GTTCGAGA,0.812
16,TCGCGTAC,0.584
17,TACCGTGG,0.352
18,CGTCGTTA,0.474
19,TGACGAAC,0.947
20,TCTCGTTG,0.455
21,CCACGTCC,1.94
22,GCTCGTCT,1.22
